Results as given in PubChem BioAssay AID1346428 (National Center for Advancing Translational Sciences (NCATS), 2018).
Values joined by “and” are separate entries in the source; they are usually repeats but may differ in a detail not shown here. Equal values may be shown once. Hit rate of the full screen: of about 48,000 compounds, about 1,200 (2.5%) were called active. Not shown: some 2% with an inconclusive outcome.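 Rule for the calls: active = activation of at least 60% and not above a set upper limit (about 1 call in 100 departs from these limits); inconclusive = activation of 40% to 60%, or above that upper limit; inactive = activation under 40%.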 Some of the results follow.

Target: Probable G-protein coupled receptor 32 (Homo sapiens) (UniProt O75388)
Sequence of UniProt O75388 (O75388 whole entry, looked up): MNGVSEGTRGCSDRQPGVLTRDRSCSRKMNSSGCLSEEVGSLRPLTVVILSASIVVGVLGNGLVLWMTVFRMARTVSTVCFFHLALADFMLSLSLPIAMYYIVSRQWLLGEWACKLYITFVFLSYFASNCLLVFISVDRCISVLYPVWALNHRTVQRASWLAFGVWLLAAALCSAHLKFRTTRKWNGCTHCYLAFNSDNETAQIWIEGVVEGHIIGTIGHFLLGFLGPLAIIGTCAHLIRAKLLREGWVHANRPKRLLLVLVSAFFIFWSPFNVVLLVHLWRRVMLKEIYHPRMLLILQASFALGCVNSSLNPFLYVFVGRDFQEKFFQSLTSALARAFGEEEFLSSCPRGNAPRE
Assay: qHTS for Agonists of Human Resolvin D1 Receptor DRV1; note: 0% is about no effect
Settings: CHO-K1 GPR32 beta-arrestin PathHunter luminescence, 90 min; at 76.9 µM; stronger effect = higher value; zero percent set by DMSO-only wells
Method in brief: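 GPR32 activation in stably transfected CHO-K1 cells, detected as beta-arrestin recruitment by enzyme-fragment complementation. Compound exposure: 90 min, 37 °C.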

| SMILES | activation |
| --- | --- |
| Fc1ccc(N2CCN(c3nc4ccccc4c4nc(-c5cccnc5)nn34)CC2)cc1 | inactive: 9.23% |
| Cc1cc(C)c(S(=O)(=O)N2CCC(n3c(C(F)(F)F)nc4cccnc43)CC2)c(C)c1 | inactive: -24.2% |
| Cc1nc2nc(SCC(=O)N(C)Cc3ccccc3)nn2c(C)c1Cc1ccccc1Cl | inactive: -26.3% |
| Cc1cn2c(=O)cc(COc3cccc(NC(=O)c4ccc(C(C)(C)C)cc4)c3)nc2s1 | inactive: -9.41% |
| CCOC(=O)C1CCN(CC(=O)Nc2cc(C)c3c(=O)oc4ccccc4c3n2)CC1 | inactive: 2.2% |
| C=CCc1ccccc1OCCSc1nc(-c2cccs2)nc2cc(=O)[nH]n12 | active: 85.6% |
| CCOc1ccc(NC(=O)c2c(C)nn(-c3ccc(F)cc3)c2-n2cccc2)cc1 | inactive: 20.9% |
| O=C(CCn1cnc2onc(-c3ccc(F)cc3)c2c1=O)Nc1ccc(F)c(Cl)c1 | inactive: 6.51% |
| CCc1c(C)sc2c1CCN(Cc1ccccc1)C2c1ccccc1 (stereo not drawn) | inactive: 43.5% |
| O=C(Nc1ccc(OCc2cc(=O)n3c4c(sc3n2)CCCC4)cc1)c1cccc(F)c1 | inactive: 1.53% |
| Cc1nn(-c2ccccc2)c2nc(C3CC3)cc(C(=O)Nc3ccc(F)cc3)c12 | inactive: -5.19% |
| Cc1ccc(NC(=O)CN(C)S(=O)(=O)c2ccc3c(c2)n(C)c(=O)c(=O)n3C)cc1F | inactive: -16.9% |
| COc1ccc(C)cc1NC(=O)COc1cc(=O)n(C)c2ccccc12 | inactive: 26.5% |
| CCc1ccc(NC(=O)CN(C)S(=O)(=O)c2ccc3c(c2)c(=O)n(C)c(=O)n3C)cc1 | inactive: 4.89% |
| COc1ccc(NC(=O)c2ccco2)cc1NC(=O)COc1cccc(C)c1C | inactive: -2.13% |
| C[N+](C)(C)CCCCCCCCCC[N+](C)(C)C | inactive: 21.4% and inactive: -0.425% |
| O=C(CSc1oc(-c2ccccc2)nc1S(=O)(=O)c1ccc(Br)cc1)c1ccccc1 | inactive: -23.3% |
| Cc1ccc(NC(=O)c2nnn(Cc3ccccc3)c2N)cc1C | inactive: 8.76% |
| CCOC(=O)c1cc2c(=O)n3ccccc3nc2n(Cc2ccco2)c1=NC(=O)c1ccc(Br)cc1 | inactive: -28.8% |
| O=C(Nc1ccc(Br)cc1)c1ccc(F)c(S(=O)(=O)NC2CCCCCC2)c1 | inactive: 7.77% |
| Cc1ccccc1-c1nc(SCC(=O)NCc2ccc(F)cc2)c2c(=O)n(C)c(=O)n(C)c2n1 | inactive: -0.335% |

| SMILES | activation |
| --- | --- |
| COc1ccccc1N1CCN(c2nc3ccccc3n3cnnc23)CC1 | inactive: -6.16% |
| COc1ccc(-c2nc(-c3cc4cc(Br)ccc4oc3=O)cs2)cc1 | inactive: 1.08% |
| Cc1ccc(-n2nc(CO)c(C(=O)NCc3ccccn3)n2)cc1 | inactive: -4.23% |
| Cc1cccc(C)c1NC(=O)Nc1csc2c1CCCC2 | inactive: -12.3% |
| O=C(CCn1nc(-c2ccccc2)c2ccccc2c1=O)Nc1ccccc1 | inactive: 19.6% |
| CCc1ccc(-n2nnc(-c3nsc(NC(=O)c4ccccc4Cl)n3)c2C)cc1 | active: 105% |
| Cc1cc(-c2ccc(C)c(S(=O)(=O)Nc3cccc(C)n3)c2)on1 | inactive: -7.78% |
| COc1ccc(OCc2ccc(-c3nc(C#N)c(N4CCN(c5ccccc5)CC4)o3)o2)cc1 | inactive: 6.06% |
| CC(=O)Nc1ccc(NC(=O)c2cc(=O)c3ccccc3o2)cc1 | inactive: -14.2% |
| Cc1ccc2c(c1)N(C(=O)N1CCC(C(=O)NCc3cccc(Br)c3)CC1)CCO2 | inactive: 2.94% |
| O=C(O)/C(=C/c1c(C(=O)O)[nH]c2cc(Cl)cc(Cl)c12)c1ccccc1 | inactive: -3.58% |
| COc1cc(C2C(=O)N(C3CCCCCC3)CC(=O)N2Cc2ccccc2)ccc1OC(C)C (stereo not drawn) | inactive: -29.8% |
| COc1ccc(N2CCN(C(=O)C3CCN(Cc4nc(-c5ccc(Cl)cc5)oc4C)CC3)CC2)cc1 | inactive: -13.2% |
| CN(C)CCNC(=O)CN1N=C(c2ccccc2)CCC1=O | inactive: -5.49% |
| O=C(O)c1ccccn1 | inactive: -35.5% |
| C=C(C)Cn1c(=O)c2c(nc3n2CCN3c2cc(C)cc(C)c2)n(C)c1=O | inactive: -9.31% |
| COC(=O)c1ccc(NC(=O)CN(Cc2ccccc2)S(=O)(=O)c2ccc(C)cc2)cc1 | inactive: -6.95% |
| CC(=O)Oc1ccc(C(=C2CCCCC2)c2ccc(OC(C)=O)cc2)cc1 | inactive: -14.4% |
| COc1ccc(NC(=O)c2cnc(Nc3ccc(C)c(Cl)c3)c3ccccc23)c(OC)c1 | inactive: -2.87% |
| CCOc1ccc(NC(=O)Cn2cc(C(=O)c3ccc(CC)cc3)c(=O)c3cc4c(cc32)OCO4)cc1 | inactive: 0.0376% |
| Cc1ccc(Cl)cc1N1CCN(C(=O)c2cnn(C(C)(C)C)c2C2CCN(C(=O)OC(C)(C)C)CC2)CC1 | inactive: -8.52% |

| SMILES | activation |
| --- | --- |
| CCCSc1ncc(Cl)c(C(=O)Nc2ccc(S(=O)(=O)N3CCC(C)CC3)cc2)n1 | inactive: -17.6% |
| COc1ccc(NC(=O)Cn2c(=O)cc(C)c3c(C)nn(C)c32)cc1 | inactive: -6.61% |
| COc1ccc(CNc2nc(-c3ccc(OC)cc3)cc(C(F)(F)F)n2)cc1 | inactive: -1.3% |
| CCCC(=O)N1CCc2cc(OC)c(OC)cc2C1COc1ccc2c(C)cc(=O)oc2c1 (stereo not drawn) | inactive: -5.5% |
| COc1ccc2c(c1)CC(C(=O)NCCN1CCN(c3ccccc3F)CC1)CO2 (stereo not drawn) | inactive: -12.8% |
| CCc1ccc(NC(=O)CN2CCN(C3CCCCC3)C(=O)C2=O)cc1 | inactive: 28% |
| CCC(Sc1ncc(S(=O)(=O)c2ccc(C)cc2)c(=O)[nH]1)C(=O)Nc1cc(C)ccc1C (stereo not drawn) | inactive: -5.65% |
| O=C(Nc1c(C(=O)c2ccc(Cl)cc2)oc2ccccc12)c1cc(=O)c2ccccc2o1 | inactive: 11.7% |
| O=C(Cn1cc(SCc2ccc(Br)cc2)c2ccccc21)N1CCCCC1 | inactive: -29.7% |
| Cc1ccc(/C=C(\C#N)C(=O)Nc2ccc(Br)cc2)o1 | inactive: 1.3% |
| Cn1nnnc1SCCCNCc1cccc(OCc2ccccc2F)c1 | inactive: -4.73% |
| COc1ccc(CCN2C(=O)NC(NC(=O)c3ccccc3OC)(C(F)(F)F)C2=O)cc1OC (stereo not drawn) | inactive: -1.33% |
| CCN(C(=O)CSc1nc2ccccc2n1Cc1ccc(C(=O)OC)cc1)c1ccccc1 | inactive: -2.09% |
| CCc1nc2ccc(C(=O)NCc3ccc(N(C)C)cc3)cc2nc1CC | inactive: -25.7% |
| Cc1ccc2oc(=O)c(S(=O)(=O)c3ccc(F)cc3)cc2c1 | inactive: 16% |
| COc1ccc(NC(=O)c2ccco2)cc1NC(=O)c1ccc(C)c(C)c1 | inactive: 3.88% |
| CCc1ccc(NC(=O)C(=O)NCCc2csc(-c3cccc(F)c3)n2)cc1 | inactive: -0.827% |
| Cc1ccc(C)c(Nc2nnc(-c3ccc(C)c(S(=O)(=O)N4CCN(C)CC4)c3)c3ccccc23)c1 | inactive: 10.3% |
| CCOc1ccc(NC(=O)CSc2oc(-c3cccs3)nc2S(=O)(=O)c2ccc(C)cc2)cc1 | inactive: -0.215% |
| CCn1nc(C)c2c(-c3ccccc3)cc(=O)n(C(C)C(=O)Nc3cccc(F)c3)c21 (stereo not drawn) | inactive: -12% |
| Cc1ccc(C2=CC(c3ccccc3C)n3c(nc4ccccc43)N2)cc1 (stereo not drawn) | inactive: -11.4% |

| SMILES | activation |
| --- | --- |
| CCCc1c2oc(C(=O)O)cc(=O)c2cc2c(=O)cc(C(=O)O)n(CC)c12 | inactive: -52.6% |
| Cc1ccn2c(Nc3ccccc3C)c(-c3ccc(N4CCOCC4)cc3)nc2c1 | inactive: -18.7% |
| O=C(COc1ccc(Cl)cc1)NCC(c1ccco1)S(=O)(=O)c1ccccc1 (stereo not drawn) | inactive: -5.65% |
| COc1ccccc1NC(=O)c1sc2nc3c(c(C(F)(F)F)c2c1N)CN(C(C)=O)CC3 | inactive: 7.58% |
| Cc1ccccc1CCNC(=O)c1ccc(NC(=O)N2CC(C)Sc3ccccc32)cc1 (stereo not drawn) | inactive: -18.3% |
| Cc1nn(-c2ccc(N3CCOCC3)nn2)c(C)c1CCC(=O)NCc1ccccc1 | inactive: 1.5% |
| Cc1cc(C)c(NC(=O)CSc2n[nH]c(-c3ccccc3Cl)n2)c(C)c1 | inactive: -0.867% |
| Cc1ccccc1-c1nnc(SCC(=O)N(C)c2ccccc2)o1 | inactive: -6.05% |
| COc1cc(C(=O)N2CCNC(=O)C2CC(=O)Nc2ccc(C)c(C)c2)cc(OC)c1OC (stereo not drawn) | inactive: -31% |
| CCCCNc1nc2c(-c3cccc(C)c3)nnn2c2ccccc12 | inactive: -4.11% |
| Cc1ccc(/C=C/c2onc(C)c2S(=O)(=O)N2CCC(C(=O)Nc3ccc(OC(F)(F)F)cc3)CC2)cc1 | inactive: -9.36% |
| Cc1cccc(OCC(=O)Nc2cccc(C(=O)OCc3cc(=O)n4nc(C(C)C)sc4n3)c2)c1 | inactive: -12.4% |
| Cc1ccc(S(=O)(=O)Nc2cc3c(C(=O)OCc4ccccc4)c(C)oc3c3ccccc23)c(C)c1 | inactive: 9.2% |
| COC(=O)c1ccc(NC(=O)Cn2ccn3nc(-c4ccc(OC)cc4)cc3c2=O)cc1 | inactive: -3.04% |
| Cc1ccc(CNC(=O)CCc2c(C)nc3c(-c4ccc(F)cc4)c(C)nn3c2C)cc1 | inactive: -2.13% |
| CCCN(CCC)C(=O)Cn1c(=O)n(CCCCCC(=O)Nc2ccccc2)c(=O)c2sccc21 | inactive: -24.9% |
| COc1ccc2c(c1)c1c(c(=O)n(-c3ccccc3C)c(=O)n1CC(N)=O)n2C | inactive: -7.91% |
| CCc1sc(Nc2cccc(Cl)c2)nc1-c1cc2cccc(OC)c2oc1=O | inactive: -27.9% |
| Cc1nn2c3c(cnc2c1-c1ccc(Cl)cc1)C(=O)CC(c1ccc(C(C)C)cc1)C3 (stereo not drawn) | inactive: 13.3% |
| COc1ccc(NC(=O)CN2C(=O)C(C)(C)c3cc(S(=O)(=O)N4CCCCC4)ccc32)cc1Cl | inactive: 18.5% |
